Laboratory results: the supplement of paper PMC12217912
This is one part of the list. Sequences were assembled here from the parent chain. Inactive controls read about 0.05.

B1: TEV protease; numbered along this chain (parent)
chain: MGESLFKGPRDYNPISSSICHLTNESDGHTTSLYGIGFGPFIITNKHLFRRNNGTLVVQSLHGVFKVKDTTTLQQHLVDGRDMIIIRMPKDFPPFPQKLKFREPQREERICLVTTNFQTKSMSSMVSDTSCTFPSGDGIFWKHWIQTKDGQCGSPLVSTRDGFIVGIHSASNFTNTNNYFTSVPKNFMELLTNQEAQQWVSGWRLNADSVLWGGHKVFMVKPEEPFQPVKEATQL

Variants of: B1
Assay: raw area under fraction-flipped curve 0-4 h after induction (AUC4h, not background-subtracted), DNA-recorder readout of cleavage of the substrate (dimensionless); higher = more cleavage of the substrate by the protease variant
Details: temperature: 34 °C; time window: 0-4 h after rhamnose induction
Protocol: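 In vivo DNA recorder in E. coli TOP10(DE3) ΔrhaA at 34 °C. Each TEVp single-site mutant (parent TEVp 0) is paired with a single-site variant of the 7-mer TEVs (canonical ENLYFQ|S). The substrate sits between flexible linkers in a Bxb1-sfGFP-TEVs-SsrA fusion, so cleavage stabilises Bxb1 and speeds flipping of a recombination array, read by NGS. The value is the raw area under the fraction-flipped curve over 0-4 h after rhamnose induction (AUC4h), with ≥20 reads per time point. It is not background-subtracted; inactive controls average about 0.047.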
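Note: Bxb1 expression induced with 0.2% (w/v) L-rhamnose at OD600 near 0.5, cultures sampled hourly, flipped fraction per protease–substrate barcode pair counted by paired-end Illumina sequencing.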

| Variant | area with substrate ENAYFQS | area with substrate ENCYFQS | area with substrate ENDYFQS | area with substrate ENEYFQS | area with substrate ENFYFQS | area with substrate ENGYFQS | area with substrate ENHYFQS | area with substrate ENIYFQS | area with substrate ENKYFQS | area with substrate ENMYFQS | area with substrate ENNYFQS | area with substrate ENPYFQS | area with substrate ENQYFQS | area with substrate ENRYFQS | area with substrate ENSYFQS | area with substrate ENTYFQS | area with substrate ENVYFQS | area with substrate ENWYFQS | area with substrate ENYYFQS |
| --- | --- | --- | --- | --- | --- | --- | --- | --- | --- | --- | --- | --- | --- | --- | --- | --- | --- | --- | --- |
| MGESLFKGPRDYNPISSSICHLTNRSDGHTTSLYGIGFGPFIITNKHLFRRNNGTLVVQSLHGVFKVKDTTTLQQHLVDGRDMIIIRMPKDFPPFPQKLKFREPQREERICLVTTNFQTKSMSSMVSDTSCTFPSGDGIFWKHWIQTKDGQCGSPLVSTRDGFIVGIHSASNFTNTNNYFTSVPKNFMELLTNQEAQQWVSGWRLNADSVLWGGHKVFMVKPEEPFQPVKEATQL [E25R] | 0.0661 | 0.0701 | 0.0553 | 0.0627 | 0.0534 | 0.0564 | 0.0576 | 0.125 | 0.0688 | 0.0892 | 0.0518 | 0.0656 | 0.0568 | 0.0594 | 0.06 | 0.0717 | 0.0715 | 0.0123 | 0.0601 |
| MGESLFKGPRDYNPISSSICHLTNGSDGHTTSLYGIGFGPFIITNKHLFRRNNGTLVVQSLHGVFKVKDTTTLQQHLVDGRDMIIIRMPKDFPPFPQKLKFREPQREERICLVTTNFQTKSMSSMVSDTSCTFPSGDGIFWKHWIQTKDGQCGSPLVSTRDGFIVGIHSASNFTNTNNYFTSVPKNFMELLTNQEAQQWVSGWRLNADSVLWGGHKVFMVKPEEPFQPVKEATQL [E25G] | 0.0626 | 0.0527 | 0.0599 | 0.0608 | 0.0565 | 0.0562 | 0.0658 | 0.103 | – | 0.0649 | 0.0628 | 0.0772 | 0.0627 | 0.056 | 0.0567 | 0.0546 | 0.0577 | 0.0568 | 0.0559 |
| MGESLFKGPRDYNPISSSICHLTNNSDGHTTSLYGIGFGPFIITNKHLFRRNNGTLVVQSLHGVFKVKDTTTLQQHLVDGRDMIIIRMPKDFPPFPQKLKFREPQREERICLVTTNFQTKSMSSMVSDTSCTFPSGDGIFWKHWIQTKDGQCGSPLVSTRDGFIVGIHSASNFTNTNNYFTSVPKNFMELLTNQEAQQWVSGWRLNADSVLWGGHKVFMVKPEEPFQPVKEATQL [E25N] | 0.0636 | 0.0673 | 0.0627 | 0.052 | 0.0426 | 0.0718 | 0.0561 | 0.0898 | – | – | 0.058 | 0.0617 | 0.0561 | 0.0461 | 0.0637 | 0.0613 | – | – | 0.0372 |
| MGESLFKGPRDYNPISSSIQHLTNESDGHTTSLYGIGFGPFIITNKHLFRRNNGTLVVQSLHGVFKVKDTTTLQQHLVDGRDMIIIRMPKDFPPFPQKLKFREPQREERICLVTTNFQTKSMSSMVSDTSCTFPSGDGIFWKHWIQTKDGQCGSPLVSTRDGFIVGIHSASNFTNTNNYFTSVPKNFMELLTNQEAQQWVSGWRLNADSVLWGGHKVFMVKPEEPFQPVKEATQL [C20Q] | 0.0535 | 0.059 | 0.0518 | 0.0476 | – | – | 0.0562 | – | 0.0351 | – | – | – | 0.0423 | 0.0504 | 0.0571 | 0.0211 | 0.0524 | – | – |
| MGESLFKGPRDYNPISSSINHLTNESDGHTTSLYGIGFGPFIITNKHLFRRNNGTLVVQSLHGVFKVKDTTTLQQHLVDGRDMIIIRMPKDFPPFPQKLKFREPQREERICLVTTNFQTKSMSSMVSDTSCTFPSGDGIFWKHWIQTKDGQCGSPLVSTRDGFIVGIHSASNFTNTNNYFTSVPKNFMELLTNQEAQQWVSGWRLNADSVLWGGHKVFMVKPEEPFQPVKEATQL [C20N] | 0.0443 | 0.0448 | 0.0451 | 0.0505 | 0.0463 | 0.0496 | 0.0416 | 0.0646 | 0.0524 | 0.0727 | 0.0539 | 0.0569 | 0.049 | 0.0144 | 0.0453 | 0.0608 | 0.0427 | – | 0.0398 |
| MGESLFKGPRDYNPISSSICHLTNEHDGHTTSLYGIGFGPFIITNKHLFRRNNGTLVVQSLHGVFKVKDTTTLQQHLVDGRDMIIIRMPKDFPPFPQKLKFREPQREERICLVTTNFQTKSMSSMVSDTSCTFPSGDGIFWKHWIQTKDGQCGSPLVSTRDGFIVGIHSASNFTNTNNYFTSVPKNFMELLTNQEAQQWVSGWRLNADSVLWGGHKVFMVKPEEPFQPVKEATQL [S26H] | 0.0668 | – | 0.0648 | 0.0596 | 0.0647 | – | 0.0736 | 0.0714 | – | 0.0908 | – | – | 0.0541 | 0.0566 | 0.0678 | 0.0668 | 0.0692 | 0.0698 | – |
| MGESLFKGPRDYNPISSSICALTNESDGHTTSLYGIGFGPFIITNKHLFRRNNGTLVVQSLHGVFKVKDTTTLQQHLVDGRDMIIIRMPKDFPPFPQKLKFREPQREERICLVTTNFQTKSMSSMVSDTSCTFPSGDGIFWKHWIQTKDGQCGSPLVSTRDGFIVGIHSASNFTNTNNYFTSVPKNFMELLTNQEAQQWVSGWRLNADSVLWGGHKVFMVKPEEPFQPVKEATQL [H21A] | 0.0582 | 0.0577 | 0.0481 | 0.0522 | 0.0607 | 0.0633 | 0.0657 | 0.0979 | 0.0645 | 0.0785 | 0.0624 | 0.0541 | 0.0603 | 0.0592 | 0.0621 | 0.0485 | 0.0796 | 0.007 | 0.0478 |
| MGESLFKGPRDYNPISSSYCHLTNESDGHTTSLYGIGFGPFIITNKHLFRRNNGTLVVQSLHGVFKVKDTTTLQQHLVDGRDMIIIRMPKDFPPFPQKLKFREPQREERICLVTTNFQTKSMSSMVSDTSCTFPSGDGIFWKHWIQTKDGQCGSPLVSTRDGFIVGIHSASNFTNTNNYFTSVPKNFMELLTNQEAQQWVSGWRLNADSVLWGGHKVFMVKPEEPFQPVKEATQL [I19Y] | 0.0494 | 0.068 | 0.0628 | 0.0592 | 0.0459 | 0.0417 | 0.0533 | – | 0.0617 | 0.0517 | – | 0.0581 | 0.0606 | 0.0473 | 0.0539 | 0.0428 | 0.0613 | 0.0432 | 0.0456 |
| MGESLFKGPRDYNPISSSVCHLTNESDGHTTSLYGIGFGPFIITNKHLFRRNNGTLVVQSLHGVFKVKDTTTLQQHLVDGRDMIIIRMPKDFPPFPQKLKFREPQREERICLVTTNFQTKSMSSMVSDTSCTFPSGDGIFWKHWIQTKDGQCGSPLVSTRDGFIVGIHSASNFTNTNNYFTSVPKNFMELLTNQEAQQWVSGWRLNADSVLWGGHKVFMVKPEEPFQPVKEATQL [I19V] | 0.0617 | – | 0.0603 | 0.0607 | 0.06 | – | 0.0509 | 0.12 | – | – | – | 0.051 | 0.0594 | – | 0.0706 | 0.0613 | 0.0846 | – | 0.0581 |
